In the BET-seq Pho4 binding data (Le et al. 2018):
This is one part of the list. The energies were worked out here from pooled read counts, against the library average; single values are noisy.

molecular target: T1, Pho4 (S. cerevisiae) (UniProt P07270); test: relative binding free energy (BET-seq); higher = weaker binding; conditions: reference: library average
T1 sequence: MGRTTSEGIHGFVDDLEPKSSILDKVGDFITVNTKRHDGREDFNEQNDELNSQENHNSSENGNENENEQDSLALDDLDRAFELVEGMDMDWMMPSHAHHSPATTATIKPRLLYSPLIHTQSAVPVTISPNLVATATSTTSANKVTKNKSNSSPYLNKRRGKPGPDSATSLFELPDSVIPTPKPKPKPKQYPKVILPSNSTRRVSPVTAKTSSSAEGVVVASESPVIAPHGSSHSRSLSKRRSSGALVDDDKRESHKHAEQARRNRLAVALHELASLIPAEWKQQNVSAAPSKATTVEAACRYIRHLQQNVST

Sequence | relative binding free energy [kcal/mol]
AATATCACGTGAGCGT | 0.26
GTATGCACGTGAAAAG | 0.21
TTTAACACGTGGTTGC | -0.02
TCGTACACGTGTTGGG | -0.01
TCTTTCACGTGAGAGG | 0.45
TATACCACGTGAGGTT | 0.23
ATTATCACGTGGTGGC | 0.03
AGGGGCACGTGTTGTT | -0.04
ATACACACGTGGGTTT | -0.09
TGTGTCACGTGTAGCC | 0.15
CTATGCACGTGGTGAT | -0.17
TAAGACACGTGGTATG | -0.16
AGAAACACGTGGTGGC | -0.01
GCTGTCACGTGAGAGG | 0.23
TGGGACACGTGTACTG | 0.18
CTGGTCACGTGCAGGT | 0.11
TAAGGCACGTGAAGTA | 0.16
GTGTTCACGTGGAAAT | 0.23
GTTTTCACGTGACGTA | 0.2
AGTTACACGTGCGGTT | 0.11
GCATGCACGTGGTTTA | -0.12
TGACTCACGTGGTTTA | 0.32
AAGTGCACGTGTTAAG | 0.09

Sequence | relative binding free energy [kcal/mol]
AATGGCACGTGGGGCT | -0.24
TGTACCACGTGTATTT | 0.06
GGTTTCACGTGTACGG | 0.33
GTTATCACGTGGTGCA | 0
TGGGGCACGTGCATGC | -0.2
CGTGGCACGTGGCTTT | -0.24
TTTTTCACGTGTCGTC | 0.29
AGCGGCACGTGTGGCG | -0.23
ATTTGCACGTGGATAT | 0.09
CGACGCACGTGGTGTG | -0.29
AGATGCACGTGTTTAT | -0.04
TTGATCACGTGCTGTT | 0.04
AATTACACGTGAGGTG | 0.34
AGAGGCACGTGTAGGC | -0.04
TGGCGCACGTGTAGGA | -0.06
CGGGGCACGTGGATGA | -0.14
GTTAGCACGTGTTGCT | 0.12
TATGGCACGTGATAAT | -0.03
GAATGCACGTGGTTAA | 0.06
ATTCTCACGTGAATGT | 0.43
TTATACACGTGTTTGG | -0.04
TGGCACACGTGTTGAA | 0.2
TAGGGCACGTGAGCGT | -0.1

Sequence | relative binding free energy [kcal/mol]
TATGACACGTGGGAAG | -0.03
AAGAGCACGTGGAGGG | -0.22
TCTATCACGTGATGTT | 0.01
TTGTACACGTGAGGAG | 0.43
CTTGCCACGTGGGTTG | -0.25
TAAGGCACGTGCGCTG | -0.21
ACGCGCACGTGGGGGC | -0.27
GTGTTCACGTGCGGGA | 0.2
GATAACACGTGTTGGC | 0.1
ACTTGCACGTGTTGAT | 0.09
GGGTTCACGTGGCAAT | 0.39
TTTAACACGTGCTTTA | -0.1
AAAGGCACGTGGGCGC | -0.2
AATTACACGTGGGGTC | 0.08
TGGATCACGTGTGAAT | 0.28
TGGATCACGTGGGAGA | -0.09
TCGAGCACGTGGTTAT | -0.13
GGGCTCACGTGTATTT | 0.26
CGGTTCACGTGCGGGA | 0.07
GTAATCACGTGAGATT | 0.33
GGTCGCACGTGAGTAT | 0.22
GTTGTCACGTGTCCGT | 0.03
TATGTCACGTGGACAT | 0.2

Sequence | relative binding free energy [kcal/mol]
GTGTACACGTGGTCAG | -0.1
TTGGTCACGTGCAGAG | 0.09
GTGAGCACGTGGAAGA | -0.05
CGAGTCACGTGAATTT | 0.5
TTCGACACGTGAGTGT | 0.13
AATGGCACGTGTGGAA | -0.06
TATACCACGTGTAGGA | 0.19
GGTTACACGTGTCGGT | 0.17
TCTAGCACGTGCGGGG | -0.11
TTTCGCACGTGTATTT | -0.09
ATTGTCACGTGTGAGC | 0.12
TGCGTCACGTGAATGG | 0.3
GAGTTCACGTGGTGTG | 0.25
GCTGACACGTGATGGG | 0.19
TTGGGCACGTGTGATT | 0.08
GGTTTCACGTGCGATT | 0.24
AATGGCACGTGCTGTA | -0.21
AGTTGCACGTGGCAGA | -0.06
TGTATCACGTGGCAGG | 0.07
GTTGTCACGTGGTCAG | 0.08
AGGTCCACGTGGGTCG | -0.16
GGTGTCACGTGATAAG | 0.21
TTGGTCACGTGCTCAT | 0

Sequence | relative binding free energy [kcal/mol]
AATGTCACGTGCTGTA | -0.07
GGCGGCACGTGTATAG | 0.06
CTGGCCACGTGTATGG | -0.02
TCGGTCACGTGTGTTG | 0.14
CGTTACACGTGGGATT | 0.09
AAAGGCACGTGTGGTT | -0.01
TTTAGCACGTGGAGTG | -0.03
GCTTGCACGTGCTGGT | 0.03
GGTTGCACGTGCTAAT | 0.01
TAAATCACGTGGGTAT | 0.05
CTAGTCACGTGCTGGG | 0.16
TTTTTCACGTGCTCGT | 0.28
TTTGACACGTGTAGTC | 0.22
ATCTGCACGTGTGGGG | -0.05
CGGTGCACGTGTGAGT | -0.09
GCATGCACGTGTAGTA | 0.12
CGCGACACGTGGGTGT | -0.14
TGCGGCACGTGCGTTA | -0.2
ATGTACACGTGCGTGA | 0.02
GTTAACACGTGTGCTT | 0
ATGGACACGTGGTTCT | -0.16
AGTAGCACGTGTGGTT | -0.03
ATGTACACGTGTGGTC | 0.23
